In all, about 390,000 compounds went through this assay and about 4,700 (1.2%) were called active. Not shown: some 4% with an inconclusive outcome. Calls come from the whole dose curve; as a rule, active = well fitted inhibition curve with a large enough effect; inconclusive = small, poorly fitted or top-dose-only effect, or another doubt; inactive = no such curve, though single readings can be large or run the other way. Only a part is listed here, and it is no random draw. A structure can be active in one record and inactive in another. Where a SMILES comes first, the peptide text is derived from it. [ ]: non-standard residue; d: D form. The star is where a group is joined. ξ: configuration not given here. ξF = NC(Cc1ccccc1)C(=O)O; Cbz = O=C(OCc1ccccc1)*
% is set by controls: 0 for no effect and ±100 for the full control effect; potency is the fitted concentration of half-maximal effect.

For the test, the target named is DNA polymerase eta (Homo sapiens) (UniProt Q9Y253). Kind of test: qHTS for Inhibitors of Polymerase Eta. As to conditions: recombinant Pol eta, fluorescent DNA replication assay; series mostly up to 114 µM; activity change, negative = inhibition: at the top concentration. The source says: The Y-family of DNA polymerases, such as Pol eta, are specifically involved in DNA repair. Pol eta copies undamaged DNA with a lower fidelity than other DNA-directed polymerases. However, it accurately replicates UV-damaged DNA; when thymine dimers are present, this polymerase inserts the complementary nucleotides in the newly synthesized DNA, thereby bypassing the lesion and suppressing the mutagenic effect of UV-induced DNA damage. […] Thus, while pol eta's (and most likely iota's) normal function is to protect humans against the deleterious consequences of DNA damage, under certain conditions they can have deleterious effects on human health. As a consequence, we propose to utilize a high throughput replication assay to identify small molecule inhibitors of pol eta. In a collaboration between the National Institute of Child Health & Human Development (NICHD) and NIH Chemical Genomics Center, a high-throughput, fluorescent screen was developed to screen the NIH Molecular Libraries Small Molecule Repository (MLSMR). This screen is used to identify inhibitors of pol eta. NIH Chemical Genomics Center [NCGC] NIH Molecular Libraries Probe Centers Network [MLPCN] MLPCN Grant: MH090825 Assay Submitter (PI): Roger Woodgate, NICHD)
UniProt Q9Y253, sequence (Q9Y253 whole entry, looked up): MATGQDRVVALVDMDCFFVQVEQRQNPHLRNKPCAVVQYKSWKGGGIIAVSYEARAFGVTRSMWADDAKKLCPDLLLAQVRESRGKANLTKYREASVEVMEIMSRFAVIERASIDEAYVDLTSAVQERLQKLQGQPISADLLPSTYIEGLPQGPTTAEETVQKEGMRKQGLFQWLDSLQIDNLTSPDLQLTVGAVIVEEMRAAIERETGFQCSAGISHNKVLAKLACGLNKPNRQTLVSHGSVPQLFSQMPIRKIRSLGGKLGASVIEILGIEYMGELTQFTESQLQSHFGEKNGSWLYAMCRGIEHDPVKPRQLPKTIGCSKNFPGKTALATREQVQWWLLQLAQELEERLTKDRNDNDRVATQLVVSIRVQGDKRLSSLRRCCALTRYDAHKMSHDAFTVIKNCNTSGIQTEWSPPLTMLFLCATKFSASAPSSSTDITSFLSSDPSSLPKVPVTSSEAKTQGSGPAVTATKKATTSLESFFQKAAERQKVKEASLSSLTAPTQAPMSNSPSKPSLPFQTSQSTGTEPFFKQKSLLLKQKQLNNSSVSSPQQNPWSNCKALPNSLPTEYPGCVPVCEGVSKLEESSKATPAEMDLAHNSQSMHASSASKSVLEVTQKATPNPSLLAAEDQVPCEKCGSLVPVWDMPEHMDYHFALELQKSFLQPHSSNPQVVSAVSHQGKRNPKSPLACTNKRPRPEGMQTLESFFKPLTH
Three microliters of reagents (buffer in column 3 and 4 as negative control and 10 nM Pol eta in columns 1, 2, and 5-48) were dispensed into a 1,536-well black solid-bottomed plate. Compounds (23 nL) were transferred via Kalypsys pin tool equipped with 1536-pin array. The plates were then incubated for 15 min at room temperature, and 1 µL substrate (50 nM final concentration) was added to start the reaction and kinetically read twice at 0 min and 10 min on the Viewlux reader
On the technique in general: Quantitative high-throughput screening tests each substance at several concentrations.
As to `COc1ccc(C)cc1NC(=O)c1oc2ccc(S(=O)(=O)N3CCC4(CC3)OCCO4)cc2c1C`, the “activity change, negative = inhibition” value was inactive: 17.9%.

In the case of `Cc1nc2sc(C(c3ccc(Cl)cc3)N3CCN(C(=O)c4ccco4)CC3)c(O)n2n1` (centres undefined), the “activity change, negative = inhibition” value was inactive: -8.34%.

As for `CCc1nnc(NC(=O)CSc2nnc(CNc3ccc(C)cc3)n2C)s1`, the “activity change, negative = inhibition” value is inactive: 16.5%.

Consider `CC(=O)Oc1ccc(-c2cc3ccc(OC(C)=O)cc3oc2=O)cc1`, for which the “activity change, negative = inhibition” value was inactive: 31.2%.

Take `Cc1cc(Cl)c(O)c(-n2nc3ccccc3n2)c1`: the “activity change, negative = inhibition” value was inactive: 25.6%.

As for `O=C(Cn1cnc2ccccc2c1=O)NCCC(=O)Nc1ccc(F)cc1`, the “activity change, negative = inhibition” value was inactive: 3.73%.

`COc1ccccc1NCCC(=O)O`: the “activity change, negative = inhibition” value is inactive: 31.3%.

Consider `O=C(CCCN1C(=O)S/C(=C/C=C/c2ccccc2)C1=O)Nc1ccc(C(=O)O)cc1`, for which the Potency was active: 89.1 µM.

On to `COc1ccc(CNC(=O)CN(C)S(=O)(=O)c2ccc(Cl)cc2)cc1`, for which the “activity change, negative = inhibition” value is inactive: 16.1%.

For `CC(C)[C@H](NC(=O)OCc1ccccc1)C(=O)NC(C=O)Cc1ccccc1` (stereo partly drawn) (Cbz-Val-[ξF]-aldehyde), the “activity change, negative = inhibition” value is inactive: -13.3%.

`CC(C)NC[C@H](O)c1ccc(O)c(O)c1`: the Potency result was “inactive”.

Regarding `C[C@@H](C(=O)Nc1ccc2ccccc2c1)[C@@H]1C[C@@]1(C)[C@@H](NC(=O)c1cnccn1)c1ccccc1`, the “activity change, negative = inhibition” value is inactive: -13.3%.

Take `C=C(C)C(=O)Nc1cccc(C2=NOC3(C2)C[C@@H](C(N)=O)N(C(=O)c2ccc(Cl)cc2)C3)c1` (some centres undefined): the Potency was active: 4.47 µM.

Take `CC(=O)c1ccc(-n2c(CCC(=O)O)ccc2-c2cccs2)cc1`: the “activity change, negative = inhibition” value is inactive: -14.6%.

For `CCOc1ccc(CNC(=O)Cn2nc(C)c3c(C)n(-c4ccc(C)cc4)nc3c2=O)cc1`, the “activity change, negative = inhibition” value is inactive: -23.7%.

Take `O=C(C=C(O)c1ccc(Cl)cc1)C(=O)NNC(=O)C(O)(c1ccccc1)c1ccccc1`: the “activity change, negative = inhibition” value is inactive: -24.6%.

Regarding `CC(C)(O)[C@H](O)COc1c2ccoc2cc2oc(=O)ccc12`, the “activity change, negative = inhibition” value was inactive: 2.38%.

In the case of `COc1ccccc1CCNc1ncnc2c1nnn2C`, the “activity change, negative = inhibition” value was inactive: 15.7%.

For the molecule `Cc1nnc(SCC2=C(C(=O)O)N3C(=O)C(NC(=O)Cn4ncc(Cl)c4C)C3SC2)s1` (centres undefined), the Potency is active: 17.8 µM.

As for `COc1cc(C(=O)N/N=C/c2ccc3c(c2)c2ccccc2n3C)ccc1O`, the Potency is active: 15.8 µM.

In the case of `CCN1CC2([N+](=O)[O-])C=CC(=O)C([N+](=O)[O-])(C1)C2CC(=O)c1ccccc1` (centres undefined), the Potency was active: 25.1 µM.

Regarding `OCC[C@H]1C[C@H](O)[C@@H](O)[C@@]2(CCCc3ccccc3O2)O1`, the “activity change, negative = inhibition” value was inactive: -22.3%.

Regarding `Nc1cc(N)nc(SCC(=O)N2CCN(S(=O)(=O)c3ccccc3)CC2)n1`, the “activity change, negative = inhibition” value was inactive: 30.9%.

As for `O=Cc1[nH]c2ccccc2c1N(C(=O)CCl)c1ccccc1`, the Potency is active: 20 µM.

For the molecule `COc1ccc(CN(C)CC(=O)Nc2ccc(Cl)cc2F)c(OC)c1`, the “activity change, negative = inhibition” value is inactive: 31.5%.

With `CCOC(=O)[C@@H]1[C@H]2COc3ccccc3[C@@H]2N2C(=O)N(c3ccc(C(F)(F)F)cc3)C(=O)[C@@]12C`, the “activity change, negative = inhibition” value was inactive: -20.6%.

As to `OCCOCCN1CCN(C(c2ccccc2)c2ccc(Cl)cc2)CC1` (centres undefined), the “activity change, negative = inhibition” value was inactive: -4.67%.

Consider `[O-]c1c[n+](-c2ccc(-[n+]3cc([O-])on3)cc2)no1`, for which the Potency is active: 44.7 µM.

As to `CC1(OC(=O)c2cccs2)C(=O)C=C2C=C3CCCN3C=C2C1=O` (centres undefined), the Potency was active: 22.4 µM.

In the case of `O=C(NCCn1cc(SCc2ccc(F)cc2)c2ccccc21)c1c(F)cccc1F`, the “activity change, negative = inhibition” value is inactive: -22.9%.

For `COc1ccccc1C(=O)Nc1c(C(=O)N(CCN(C)C)Cc2ccco2)oc2ccccc12`, the “activity change, negative = inhibition” value was inactive: -12.5%.

On to `Cc1ccc2[nH]c3c(=O)n(CC(=O)NCc4ccco4)ncc3c2c1`, for which the “activity change, negative = inhibition” value was inactive: -9.85%.

Consider `CCOc1ccc(C(=O)Nc2cccc(-c3ccc4nncn4n3)c2)cc1`, for which the “activity change, negative = inhibition” value was inactive: 33.2%.

As for `CCOC(=O)c1c(C)[nH]c(C(=O)COC(=O)C(C)N2C(=O)C3CCCCC3C2=O)c1C` (centres undefined), the “activity change, negative = inhibition” value is inactive: -7.1%.

With `O=C(Cc1ccc([N+](=O)[O-])cc1)N/N=C/c1cccnc1`, the “activity change, negative = inhibition” value was inactive: 21.9%.

In the case of `O=C(Cc1ccc(Br)cc1)N/N=C/c1ccc(-c2cccc(C(=O)O)c2)o1`, the Potency was active: 22.4 µM.

Take `CCOc1cc(CNS(=O)(=O)c2ccc3c(c2)CC(=O)N3C)cc(OCC)c1OCC`: the “activity change, negative = inhibition” value is inactive: -3.27%.

Turning to `CN(C)S(=O)(=O)Nc1cccc(Br)c1`, the “activity change, negative = inhibition” value was inactive: 30.3%.

As for `Cc1ccccc1NC(=O)c1ccc2c(O)c(S(=O)(=O)c3ccccc3)c(=O)[nH]c2c1`, the “activity change, negative = inhibition” value was inactive: -10.2%.

With `Cc1ccc(C(=O)OCC(=O)NCc2ccco2)s1`, the Potency was active: 22.4 µM.

As for `O=C1NC(=S)N/C1=C\c1cccc([N+](=O)[O-])c1`, the “activity change, negative = inhibition” value is inactive: -1.7%.

As to `COC(=O)c1cc2c(cc1NC(=O)c1cnn(-c3ccc(C)cc3)c1-n1cccc1)OCO2`, the “activity change, negative = inhibition” value was inactive: 23.7%.

Regarding `C=CCc1ccc(OCc2ccc(C(=O)O)o2)c(OC)c1`, the Potency was active: 28.2 µM.

In the case of `COC1=CC(=Cc2c(N)n3nc(CC(=O)N4CCOCC4)sc3nc2=O)C=C(OC)C1=O`, the Potency was active: 20 µM.

For `CC(/C=C\c1cccnc1)=C/C(=O)O`, the “activity change, negative = inhibition” value was inactive: -15.9%.

Consider `CON=C(C(=O)NC1C(=O)N2C(C(=O)O)=C(CSc3nc(=O)c(=O)[nH]n3C)CSC12)c1csc(N)n1` (centres undefined), for which the Potency is active: 31.6 µM.

Consider `CCC1C/C(=C\c2cccnc2)C(=O)/C(=C/c2cccnc2)C1` (centres undefined), for which the Potency was active: 11.2 µM.

On to `CN1C(C(=O)Nc2ccc(OC(F)(F)F)cc2)=CC(c2cccs2)=NS1(=O)=O`, for which the “activity change, negative = inhibition” value was inactive: -15.3%.

As to `CCNC(=O)COC(=O)c1ccc(S(=O)(=O)N2CCCCCC2)cc1`, the “activity change, negative = inhibition” value is inactive: -2.48%.

Take `C/C(N)=C(/C#N)C(=O)CSc1nnnn1-c1ccccc1`: the Potency was active: 15.8 µM.

Take `NN1C(=O)/C(=C2/Sc3ccccc3N2CCCS(=O)(=O)O)SC1=S`: the Potency is active: 50.1 µM.

As to `C=CC[C@H](CC(=O)N(CCO)Cc1ccccc1)C(=O)N[C@H](COC(=O)[C@H](CC=C)CC(=O)OC(C)(C)C)Cc1c[nH]c2ccccc12`, the “activity change, negative = inhibition” value was inactive: -22.3%.

Turning to `CCCc1cc(=O)oc2cc(OCC(=O)NC(Cc3c[nH]c4ccc(O)cc34)C(=O)O)c(Cl)cc12` (centres undefined), the Potency was active: 39.8 µM.

As for `COc1cccc(CNC(=O)Cn2nc(-c3ccc(Cl)cc3)ccc2=O)c1`, the “activity change, negative = inhibition” value was inactive: -13.9%.

Regarding `CC(C)C[C@H](CO)N(Cc1ccccc1)S(=O)(=O)N(Cc1ccccc1)[C@@H](CO)CC(C)C`, the “activity change, negative = inhibition” value was inactive: -23.5%.

As to `CCOC(=O)c1cccc(NC(=O)C2CCCN(S(=O)(=O)c3c(C)n[nH]c3C)C2)c1` (centres undefined), the “activity change, negative = inhibition” value was inactive: 2.67%.

On to `O=C(COC(=O)C1CC2C=CC1C2)NCc1ccco1` (centres undefined), for which the Potency is active: 8.91 µM.

With `C=CC[C@@H](Cc1ccc(F)cc1)C(=O)OC[C@@H]1CCCN1C(=O)[C@H](CC=C)CC(=O)N[C@H](CO)Cc1ccccc1`, the “activity change, negative = inhibition” value is inactive: -20%.

On to `COC(=O)c1c(C)[nH]c(C(=O)COc2ccc3ccc(=O)oc3c2)c1C`, for which the Potency was active: 44.7 µM.

The values above are taken from PubChem BioAssay AID588591 (National Center for Advancing Translational Sciences (NCATS), 2011).
